{"source": "PubChem BioAssay AID686979", "about": "(National Center for Advancing Translational Sciences (NCATS), 2013)", "note": "Where “and” joins values, the source holds several entries; their conditions need not be identical. Identical values can stand only once. About 50,000 (12%) of roughly 420,000 compounds were called active. Inconclusive results, whose numbers are uncertain, are shown with a selection of clear calls. The call rests on the fitted dose curve; in most records, active means well fitted inhibition curve with a large enough effect; inconclusive means small, poorly fitted or top-dose-only effect; inactive means flat fitted curve, though single readings scatter. Where the call is inconclusive, the potency comes from a doubtful curve fit. On the % scale 0 is the no-effect control and ±100 the full control effect; potency means the concentration at half of the fitted maximal effect; tags describe the fitted curve by direction and shape."}
{"test": "qHTS for Inhibitors of human tyrosyl-DNA phosphodiesterase 1 (TDP1): qHTS in cells in presence of CPT; further: nearly all actives have a fitted effect of over 55% in size", "conditions": "chicken DT40 Tdp1-/-;hTDP1 cells + 20 nM CPT, ATP luminescence, 48 h; activity change, negative = growth inhibition: at 46.2 µM (top of the series) unless noted", "summary_of_the_method": "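Chicken DT40 Tdp1-/- cells complemented with human TDP1, 400 cells/well, exposed to compounds plus 20 nM camptothecin for at least 48 h at 37 C; viability read as ATP content by CellTiter-Glo luminescence.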"}
{"smiles": "CC1=CCC2C(=O)N(C(C)c3ccccc3)C(=O)C2C1", "note": "(configuration not stated)", "Potency": "inactive"}
{"smiles": "CC1=CC(=Nc2c(C)n(C)n(-c3ccccc3)c2=O)C=C(C)C1=O", "Potency": "inconclusive: 20.6 µM [inhibitor, single point]"}
{"smiles": "Nc1ccc(O)c(-c2nc3ccccc3s2)c1", "Potency": "active: 13 µM"}
{"smiles": "S=c1nc(COc2ccccc2)[nH]c2ccccc12", "Potency": "inconclusive: 18.4 µM [inhibitor, single point]"}
{"smiles": "Cc1ccc(-c2cc(N)n(-c3ccc(C)cc3)n2)cc1", "Potency": "inconclusive: 29.1 µM [inhibitor, single point]", "activity change, negative = growth inhibition": "inconclusive: -30.9% [inhibitor]"}
{"smiles": "CC1=C(C(N)=O)C(c2cccnc2)n2nc(-c3cccc(C)c3)nc2N1", "note": "(configuration not stated)", "Potency": "inactive"}
{"smiles": "O=C1CCC/C=C\\C[C@@H](CC(=O)N(CCO)Cc2ccccc2)C(=O)N[C@H](Cc2c[nH]c3ccccc23)CO1", "Potency": "inconclusive: 29.1 µM [inhibitor, single point]"}
{"smiles": "O=S(=O)(NCC1CCN(Cc2ccccc2)CC1)c1ccccc1C(F)(F)F", "Potency": "inactive"}
{"smiles": "S=C1Cc2ccccc2N1", "Potency": "active: 0.92 µM"}
{"smiles": "CN(C)c1ncnc2sc(-c3ccccc3)cc12", "Potency": "inconclusive: 20.6 µM [inhibitor, single point]"}
{"smiles": "COc1ccc([C@H]2C[C@@H](O)[C@H](n3cc(-c4ccc(F)cc4)nn3)CN2C(=O)C2CCCCC2)cc1", "Potency": "inconclusive: 20.6 µM [inhibitor, single point]"}
{"smiles": "CN(C)CCSc1nc(O)c(-c2ccccc2)c(=O)n1-c1ccccc1", "Potency": "inactive"}
{"smiles": "COc1ccc(CNC(=O)c2ccc3nc(CCc4ccccc4)oc3c2)cc1", "activity change, negative = growth inhibition": "inconclusive: -30.4% [inhibitor]"}
{"smiles": "C(=C\\c1ccccc1)/CN1CCN(C(CCc2ccccc2)c2nnnn2C2CCCC2)CC1", "note": "(configuration not stated)", "Potency": "active: 18.4 µM"}
{"smiles": "Cn1cnnc1SCC(=O)Nc1ccc2nc(SCc3ccccc3)sc2c1", "Potency": "inconclusive: 29.1 µM [inhibitor, single point]"}
{"smiles": "Cc1ccc(NCc2nc3ccccc3n2C)c(C)c1", "Potency": "inconclusive: 0.0164 µM [inhibitor, full curve, poor fit]"}
{"smiles": "COc1ccccc1CNC(=O)C(C)n1ccc2cc(S(=O)(=O)N3CCCC3)ccc21", "note": "(configuration not stated)", "Potency": "inconclusive: 29.1 µM [inhibitor, partial curve, poor fit]"}
{"smiles": "COC(=O)CSC1=C(C#N)C(c2ccccc2F)CC(=O)N1", "note": "(configuration not stated)", "Potency": "inconclusive: 29.1 µM [inhibitor, single point]"}
{"smiles": "Cc1ccc(C)c(N(CC(=O)NCc2ccc3c(c2)OCO3)C(=O)CCC(=O)Nc2ccccn2)c1", "Potency": "inconclusive: 16.4 µM [inhibitor, single point]"}
{"smiles": "CCOc1ccc(CCNC(=O)c2ccc(C)c(S(=O)(=O)N3CCOCC3)c2)cc1OCC", "Potency": "inconclusive: 29.1 µM [inhibitor, single point]"}
{"smiles": "Cc1nc2nc(CCc3ccccc3)nn2c(C)c1Cl", "Potency": "inconclusive: 12.6 µM [inhibitor, single point]"}
{"smiles": "O=C(NOC(=O)c1ccccc1Cl)c1cccs1", "Potency": "inactive"}
{"smiles": "O=C(CSc1nnc2ccc(-c3ccncc3)nn12)c1cccs1", "Potency": "inconclusive: 16.4 µM [inhibitor, partial curve]"}
{"smiles": "Cc1ccc(NC(=O)c2ccc3c(c2)CCN3S(C)(=O)=O)cc1", "Potency": "inconclusive: 25.9 µM [inhibitor, single point]"}
{"smiles": "CC(=O)C1CCC2C3CC(C)C4=CC(=O)CC[C@@]4(C)C3C(O)C[C@@]12C", "note": "(some centres not stated)", "Potency": "inconclusive: 29.1 µM [inhibitor, single point]"}
{"smiles": "CC(C)(C)OC(=O)N1CCC[C@H]1c1nnc(SCC(=O)Nc2cccc(Cl)c2)o1", "Potency": "inactive"}
{"smiles": "O=C(Nc1nnc(-c2ccc(Cl)cc2)o1)c1ccccc1Br", "Potency": "active: 23.1 µM"}
{"smiles": "COc1ccc(NC(=O)CSc2nnc(NC(=O)c3ccco3)s2)cc1OC", "Potency": "inactive"}
{"smiles": "COc1ccc(N2CCN(CCCNC(=O)Cn3c(=O)c4cccn4c4cccnc43)CC2)cc1", "Potency": "inconclusive: 29.1 µM [inhibitor, single point]"}
{"smiles": "Cc1ccc(NC(=O)CSc2nc3c([nH]c4ccccc43)c(=O)n2-c2ccccc2)cc1Cl", "Potency": "active: 11.6 µM"}
{"smiles": "Cc1ccc(NC(=O)C(=O)NN)cc1", "Potency": "inactive"}
{"smiles": "C#CCNC(=O)C1=C[C@H](c2csc3ccccc23)[C@@H](CCCO)[C@H](OCC)O1", "Potency": "inconclusive: 20.6 µM [inhibitor, single point]"}
{"smiles": "Cc1cccc(C)c1NC(=O)CN1CCN(C(=O)CNC(=O)c2ccc(-c3ccccc3)cc2)CC1", "Potency": "inconclusive: 16.4 µM [inhibitor, partial curve]"}
{"smiles": "CCN(CC)CCNc1ccc(CO)c2sc3ccccc3c(=O)c12", "Potency": "active: 335 nM and active: 580 nM"}
{"smiles": "CCc1cc2c(C)ccc(C)c2nc1SCC(=O)Nc1c[nH]c(=O)[nH]c1=O", "Potency": "inconclusive: 16.4 µM [inhibitor, single point]"}
{"smiles": "CCOc1ccccc1NC(C)C(=O)Nc1cc(C(F)(F)F)ccc1N1CCOCC1", "note": "(configuration not stated)", "Potency": "inconclusive: 25.9 µM [inhibitor, single point]"}
{"smiles": "CC(=O)c1c(C)[nH]c(C(=O)COc2ccc(C#N)cc2)c1C", "Potency": "inconclusive: 11.6 µM [inhibitor, partial curve]"}
{"smiles": "Cc1c(C(=O)N2CCN(Cc3ccc4c(c3)OCO4)CC2)sc2ncnc(N3CCN(c4ccccc4)CC3)c12", "Potency": "inconclusive: 3.66 µM [inhibitor, single point]"}
{"smiles": "CC1Cn2c(C(=O)NCCc3ccc(Cl)cc3)cc3cccc(c32)S1", "note": "(configuration not stated)", "Potency": "active: 16.4 µM"}
{"smiles": "COc1cc(/C=N/NC(=O)c2ccccc2)ccc1OS(=O)(=O)c1ccccc1", "Potency": "inconclusive: 29.1 µM [inhibitor, single point]"}
{"smiles": "c1ccc2c(Nc3nnc(-c4ccncc4)s3)cccc2c1", "Potency": "inconclusive: 29.1 µM [inhibitor, single point]"}
{"smiles": "Cc1ccc(F)cc1NC(=O)CCc1c(C)nn(-c2ccc(N3CCOCC3)nn2)c1C", "Potency": "inconclusive: 23.1 µM [inhibitor, single point]"}
{"smiles": "COC(=O)c1ccc(Oc2nc(NC(C)C)nc(SC)n2)cc1", "Potency": "inconclusive: 25.9 µM [inhibitor, single point]"}
{"smiles": "O=C(NNc1cccc(Cl)n1)Nc1cccc(Cl)c1", "Potency": "inconclusive: 25.9 µM [inhibitor, partial curve]"}
{"smiles": "C/C(=N\\NC(=O)c1cccs1)c1cccnc1", "Potency": "active: 14.6 µM"}
{"smiles": "Cc1cccc(OCC(=O)NCc2n[nH]c(=O)c3ccccc23)c1", "Potency": "inactive"}
{"smiles": "Cc1ccc2[nH]cc(S(=O)(=O)c3ccc(C)c(C)c3)c(=O)c2c1", "Potency": "inconclusive: 29.1 µM [inhibitor, single point]"}
{"smiles": "Cn1c(-c2ccccc2)c(/C=N/NC(=O)c2cccnc2)c2ccccc21", "Potency": "inactive"}
{"smiles": "CC(C)N(C(=O)[C@H]1C[C@H](CC(=O)NCC23CC4CC(CC(C4)C2)C3)C(=O)N2CCc3c([nH]c4cc(-c5ccco5)ccc34)[C@]12C)C(C)C", "Potency": "inconclusive: 29.1 µM [inhibitor, single point]"}
{"smiles": "COc1ccc(CN=C2NC(=O)CC(C(=O)Nc3ccc(F)cc3)S2)cc1", "note": "(configuration not stated)", "Potency": "inconclusive: 23.1 µM [inhibitor, partial curve]"}
{"smiles": "COc1ccc(NC(=O)CN(c2cc(C)cc(C)c2)S(=O)(=O)c2c(C)n[nH]c2C)cc1", "Potency": "active: 29.1 µM"}
{"smiles": "CCOc1ccccc1N(CC(=O)N(C)Cc1ccccc1)S(=O)(=O)c1ccccc1", "Potency": "inconclusive: 23.1 µM [inhibitor, single point]"}
{"smiles": "CCC(C)Sc1cc(-c2nc3ccccn3c2NC2CCCCC2)ccc1OC", "note": "(configuration not stated)", "Potency": "active: 20.6 µM and active: 11.6 µM"}
{"smiles": "CN1C(=O)C(CC(=O)Nc2ccc(F)cc2)N(Cc2cccs2)C1=S", "note": "(configuration not stated)", "Potency": "inconclusive: 29.1 µM [inhibitor, single point]"}
{"smiles": "COc1ccc(C)cc1NC(=O)CCc1c(C)nn(-c2ccc(N3CCCCC3)nn2)c1C", "Potency": "inconclusive: 16.4 µM [inhibitor, single point] and inconclusive: 29.1 µM [inhibitor, single point]"}
{"smiles": "Cc1csc(NC(=O)CCn2c(=O)sc3ccccc32)n1", "Potency": "inconclusive: 23.1 µM [inhibitor, single point]"}
{"smiles": "C#CCNC(=O)C1=C[C@@H](C2CCCCC2)C[C@@H](OCCCCO)O1", "Potency": "inconclusive: 25.9 µM [inhibitor, single point]"}
{"smiles": "Cc1nc(N2CCCCCC2)c2ccccc2n1", "Potency": "inconclusive: 20.6 µM [inhibitor, single point]"}
{"smiles": "Cc1ccc(S(=O)(=O)N2CCN(c3nc(C(C)C)c4c(c3C#N)CC(C)(C)OC4)CC2)cc1", "Potency": "active: 15.8 µM"}
{"smiles": "Cc1ccc(/C=C/c2onc(C)c2S(=O)(=O)N2CCC(C(=O)N3CCOc4ccc(C)cc43)CC2)cc1", "Potency": "inconclusive: 29.1 µM [inhibitor, single point]"}
{"smiles": "Cc1c(C(=O)N2CCCC2)oc2c1-c1nn(CC(=O)NCc3ccccc3Br)cc1CC2", "Potency": "inconclusive: 25.9 µM [inhibitor, single point]"}
{"smiles": "Cc1ccc(CCNC(=O)C2CCCN(S(=O)(=O)c3c(C)noc3/C=C/N(C)C)C2)cc1", "note": "(configuration not stated)", "Potency": "inconclusive: 29.1 µM [inhibitor, single point]"}
{"smiles": "O=C(NCCC1CCCCN1S(=O)(=O)c1ccccc1)C(=O)Nc1ccc(F)cc1F", "note": "(configuration not stated)", "Potency": "active: 18.4 µM"}
{"smiles": "Cc1ccc(S(=O)(=O)/N=C2/NC(=O)/C(=C/c3cccnc3)S2)cc1", "Potency": "inconclusive: 18.4 µM [inhibitor, single point]"}
{"smiles": "Cc1cc(C)c[n+](-c2nc3ccccc3nc2[N-]S(=O)(=O)c2cccs2)c1", "Potency": "inactive"}
{"smiles": "COc1cc(C2c3cc4c(cc3OC(Nc3ccc(C(=O)O)cc3)C2C)OCO4)cc(OC)c1OC", "note": "(configuration not stated)", "Potency": "active: 1.3 µM"}
